Here are results for 56 variants from the RNAGym collection of RNA variant scans (doi:10.7554/elife.90254).

First the molecules themselves.
B1: LINE1-mini (parent)
chain: GGCAGAGCUCAACACAGCGUGGCAAAGUGGCUGUGGCUAGACUGCC

The source gives no read counts; variants with many changes may rest on few reads.

This data set covers variants of B1. Kind of data set: self-cleavage, relative activity (ratio to wild type); higher = more cleavage; in vitro, sequencing; the parent is a self-cleaving ribozyme.
Consider GGCAGAGCUCCACACAGCGUGGCAACUUGGCUGUCGCUAGACUGGC [A11C A26C G27U G35C C45G], for which the self-cleavage is 0.02.
On to GGCAGAGCUUAACACAGCGCGGCAAAGUGUCUGUGGCUAGACUGCA [C10U U20C G30U C46A], for which the self-cleavage was determined as 0.2.
The same measure for GGCAGAGCUCCACAGAGCGUGGCAGAGUGGAUGUGGCUAAACUGCC [A11C C15G A25G C31A G40A]: 0.
On to GGCAGAGCUCCACAUAGCGUGGCAAAGUGGCUAUGACUAGACUAAC [A11C C15U G33A G36A G44A C45A], for which the self-cleavage came to 0.
The same measure for GGCAGAGCUCCGCAUAGCGUGGCAAAGUGGCUGUGGCUAGACUGCC [A11C A12G C15U]: 0.01; for GGCAGAGCUUAACACAGCGUGGCAAAGUGGCUGUGGCUAAACCGCC [C10U G40A U43C]: 0.13.
As to GGCAGAGCUCCAAACAUCGUGGCAAAGUGGCUGUAGCUAGACUGCC [A11C C13A G17U G35A], the self-cleavage was determined as 0.04.
The figure for GGCAGAGCUUAACACAGCGUGGCAAAGUGGCUGGUGCUAGACUGCC [C10U U34G G35U] is 0.07.
The figure for GGCAGAGCUCCACCCAUCGUGGCAAAGUGGCUGUGGCUAGACUGCC [A11C A14C G17U] is 0.01.
Consider GGCAGAGCUCCACACAGCGUGGCGAAGUGGCUGUGGCUAGAAUGCC [A11C A24G C42A], for which the self-cleavage amounted to 0.
The figure for GGCAGAGCUCCACUCAGCGUGGCAAAGUGGAUGUGGCUAGACUGUC [A11C A14U C31A C45U] is 0.01.
The same measure for GGCAGAGCUCCGCACAGCGUGGCAAAGUAGCUGUGGCCAGACUGCC [A11C A12G G29A U38C]: 0.01; for GGCAGAGCUUAACACAGCGGGGCAAACUGGCUGUGGCUAGACUGCC [C10U U20G G27C]: 0.09; for GGCAGAGCUCCACAUAACGUGGCAAAGUGCCUGUGGCUAGACUGGC [A11C C15U G17A G30C C45G]: 0.05.
The same measure for GGCAGAGCUUAACACAGCGUGGCAAAGUGGCUGUGGCGAUACUGCC [C10U U38G G40U]: 0.02.
For GGCAGAGCUCCACACAGCGUGGCAUAGUGGCUGGGGCUAGAAUGCC [A11C A25U U34G C42A], the self-cleavage came out at 0.01.
The figure for GGCAGAGCUCCACCCAGCGUGGCAAUUCGGCUGUACCUAGACUGCU [A11C A14C A26U G27U U28C G35A G36C C46U] is 0.
On to GGCAGAGCUUAACACAGCGUGGCAAAGUGGCUGUGGCUAUACCGCC [C10U G40U U43C], for which the self-cleavage was found to be 0.06.
Turning to GGCAGAGCUCCAAACAGCGUGGCAAAGUGGCUGUGGCUAGCCUGCC [A11C C13A A41C], the self-cleavage came to 0.05.
With GGCAGAGCUUAACACAGCGUGGCAAAGUGGCUGCGGCUAGACUUCC [C10U U34C G44U], the self-cleavage is 0.02.
On to GGCAGAGCUCCACUGAGCGUGGCAAAGUGGCUGUGGCGAGACUGCC [A11C A14U C15G U38G], for which the self-cleavage stood at 0.03.
The figure for GGCAGAGCUCCACCCAGCGAGGCAAAGUGGCUGUGGCAAGACUGCC [A11C A14C U20A U38A] is 0.02; for GGCAGAGCUCCACCCAGCUUGGGAAAGUGGCUGUGGCUAGACUGCG [A11C A14C G19U C23G C46G] it is 0.
GGCAGAGCUUAACACAGCGUGGCAAAGUGGCUGUAGCUGGACAGCC [C10U G35A A39G U43A]: the self-cleavage came to 0.02.
The same measure for GGCAGAGCUCCUCACAGCGUGGCAAAGUGGCUGUGGCUAGACUGCA [A11C A12U C46A]: 0.01; for GGCAGAGCUCCACACAGCGUGGCGAAGUUGCUGUGUCUAGACUGCC [A11C A24G G29U G36U]: 0.03; for GGCAGAGCUCCACACUGCGUGGCAAAGUGGCUGUGGCUAGACUCUC [A11C A16U G44C C45U]: 0.01.
The same measure for GGCAGAGCUCCAUACAACGUGUCAAAGUGGCUACGGCUAGAAUGAC [A11C C13U G17A G22U G33A U34C C42A C45A]: 0.01; for GGCAGAGCUCCACAAAGCGUGGCAAAGUGGCUGUGGCUAUACUGCC [A11C C15A G40U]: 0; for GGCAGAGCUCCACAGAGCUGGGCAAAGUGGCUGUGGCUAGACUACC [A11C C15G G19U U20G G44A]: 0.01.
The figure for GGCAGAGCUCCACACAGGGUUGCAAAGUGGUUGCGGCUAGACUGCC [A11C C18G G21U C31U U34C] is 0.02; for GGCAGAGCUCCUCACACCGUGGCAAAGUGGCUGUGGCGACACUGCC [A11C A12U G17C U38G G40C] it is 0.01.
Consider GGCAGAGCUCCUCACAGCGUGGCACAGUCACUGUGGCUAGACUGCU [A11C A12U A25C G29C G30A C46U], for which the self-cleavage was determined as 0.04.
The same measure for GGCAGAGCUCCACAAAGCGUGGCAAAGUGGAUUUGGCUAGAGUGCC [A11C C15A C31A G33U C42G]: 0.02; for GGCAGAGCUCCUUACAGCGUGCCAAAGUGGCUGUGGCAAGAGUGCC [A11C A12U C13U G22C U38A C42G]: 0.
The same measure for GGCAGAGCUUAACACAGCGAGGCAAAGUGGCUGUGGCUUGACUUCA [C10U U20A A39U G44U C46A]: 0.02.
The same measure for GGCAGAGCUCCGCACAGCGUGGCAAAGUGGCUGUGGCUGGACUGCC [A11C A12G A39G]: 0; for GGCAGAGCUCCACACAGCGUGGCAUAGUGGCUGUUGCUAGAUUGCC [A11C A25U G35U C42U]: 0.01.
Turning to GGCAGAGCUCCAAACAGCGUGGUAAAGUGGCUGGGGCUAGACUGCC [A11C C13A C23U U34G], the self-cleavage was determined as 0.
For the variant GGCAGAGCUCCACGCAGCGUGGCAACGUGGCUCUGGCAAAACGGCC [A11C A14G A26C G33C U38A G40A U43G], the self-cleavage was 0.01.
With GGCAGAGCUUAACACAGCGUGGCAAAGUGGCGGUGGCUAGACUGAC [C10U U32G C45A], the self-cleavage came out at 0.05.
The figure for GGCAGAGCUCCAGACAGCGUGGCAAAGUGGCUGUGGCUAGUCUGCC [A11C C13G A41U] is 0.02.
The same measure for GGCAGAGCUCCAUACAGCGUGGCAUAGUGGCUGUGGCUUGACUGCC [A11C C13U A25U A39U]: 0.02; for GGCAGAGCUCCACACUGCCUGGCAAAGUGACUGUGGCUAGACUGCC [A11C A16U G19C G30A]: 0.01; for GGCAGAGCUCCUCACAGCGUGGCAAAGUGGCUGAGGCUCAACUGCC [A11C A12U U34A A39C G40A]: 0.04.
Consider GGCAGAGCUCCACGCAGCGUCGCAAAGUGGCUUUGUCUAGACUGCC [A11C A14G G21C G33U G36U], for which the self-cleavage is 0.02.
The figure for GGCAGAGCUUAACACAGCGUGGCAAAGCGGCUGUGGCAAGACUGCC [C10U U28C U38A] is 0.03; for GGCAGAGCUCCACACAGCGUGGCCAUGUGGCUGUGGCUAGACUGCC [A11C A24C A26U] it is 0.01; for GGCAGAGCUCCACACAGGGUGGCACAGUGGCUGUGGCUAGACUGCC [A11C C18G A25C] it is 0.01.
The same measure for GGCAGAGCUCCACACAGUUUGGAAAAGUGGCAGUGGCUAGACUGCC [A11C C18U G19U C23A U32A]: 0; for GGCAGAGCUUAACACAGCGUGGCAAAGCGGCUGUGGCUCGAGUUCC [C10U U28C A39C C42G G44U]: 0.01; for GGCAGAGCUUAACACAGCGUGGCAAAGUGGCUGUGGCUAGACUUAG [C10U G44U C45A C46G]: 0.04.
With GGCAGAGCUCCACACAGCGUGGCUAAGUGGCUGUAGCUAGACUGCC [A11C A24U G35A], the self-cleavage is 0.03.
The figure for GGCAGAGCUUAACACAGCGUGGCAAAGUGGCUGUGCCUAGACUGUC [C10U G36C C45U] is 0.02.
The same measure for GGCAGAGCUUAACACAGCGUGGCAAAGGGGUUGUGGAUAGAGUGCC [C10U U28G C31U C37A C42G]: 0.01; for GGCAGAGCUUAACACAGCGAGGCAAAGUGGUUUUGGCUAAACUGCC [C10U U20A C31U G33U G40A]: 0.01.
